Assay results as given in publication PMC4336329 (PLoS ONE, 2015).
Screen size: about 310,000 compounds; about 2,200 (0.71%) showed an effect of 50% or more. The effect is printed as a negative number. The list shows a part of the results.

What follows are compounds tested against human ether-à-go-go-related gene (hERG) potassium channel (human, UniProt Q12809) (assay: primary screen, population patch clamp on CHO cells stably expressing hERG).
human ether-à-go-go-related gene (hERG) potassium channel, sequence (Q12809 whole entry, looked up): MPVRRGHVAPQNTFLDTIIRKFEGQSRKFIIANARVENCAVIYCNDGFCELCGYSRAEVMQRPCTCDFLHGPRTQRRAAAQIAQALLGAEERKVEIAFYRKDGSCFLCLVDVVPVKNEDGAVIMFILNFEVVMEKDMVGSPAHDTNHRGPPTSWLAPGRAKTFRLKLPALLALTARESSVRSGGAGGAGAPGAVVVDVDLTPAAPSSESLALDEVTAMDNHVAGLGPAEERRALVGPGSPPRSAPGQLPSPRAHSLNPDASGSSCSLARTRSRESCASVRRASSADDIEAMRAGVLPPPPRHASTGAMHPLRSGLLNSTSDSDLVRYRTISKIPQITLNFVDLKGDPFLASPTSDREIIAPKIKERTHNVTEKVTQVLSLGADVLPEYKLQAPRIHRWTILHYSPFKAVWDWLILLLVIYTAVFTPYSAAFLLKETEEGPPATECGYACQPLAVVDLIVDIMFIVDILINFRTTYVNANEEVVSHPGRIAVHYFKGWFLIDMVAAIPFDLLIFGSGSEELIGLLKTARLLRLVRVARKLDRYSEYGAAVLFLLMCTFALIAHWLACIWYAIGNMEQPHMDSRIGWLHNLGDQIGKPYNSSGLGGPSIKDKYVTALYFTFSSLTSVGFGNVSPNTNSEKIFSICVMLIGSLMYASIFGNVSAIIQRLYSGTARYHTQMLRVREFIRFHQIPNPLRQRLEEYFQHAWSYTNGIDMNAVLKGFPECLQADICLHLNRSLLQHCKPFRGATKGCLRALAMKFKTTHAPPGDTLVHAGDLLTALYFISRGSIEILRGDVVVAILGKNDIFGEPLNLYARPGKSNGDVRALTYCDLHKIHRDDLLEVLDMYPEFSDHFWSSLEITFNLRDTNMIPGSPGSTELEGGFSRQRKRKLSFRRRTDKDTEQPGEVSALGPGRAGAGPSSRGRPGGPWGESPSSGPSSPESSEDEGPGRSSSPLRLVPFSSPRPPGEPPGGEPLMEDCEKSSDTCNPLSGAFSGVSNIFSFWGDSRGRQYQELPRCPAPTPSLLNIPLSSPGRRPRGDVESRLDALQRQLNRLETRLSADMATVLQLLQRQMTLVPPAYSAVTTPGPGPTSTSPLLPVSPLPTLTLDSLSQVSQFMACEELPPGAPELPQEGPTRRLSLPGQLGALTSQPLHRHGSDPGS

| SMILES | hERG current change (%, negative = inhibition) at 1uM |
| --- | --- |
| CCn1nnnc1SCC(=O)Nc1sc(C)c(C)c1C#N | 7.23% |
| CC(C)(C)C(=O)/C(=C/c1ccncc1)n1cncn1 | -7.97% |
| CCOc1ccc(NC(=O)Cc2ccccc2)c([N+](=O)[O-])c1 | 14.2% |
| Br.Brc1ccc(C2=Nn3c(nnc3-c3cccnc3)SC2)s1 | 10.8% |
| O=[N+]([O-])c1cccc(-c2nnc(CNC3CC3)o2)c1 | -21% |
| CC(=O)c1cnc(Nc2ccc(C)cc2)s1 | 3.59% |
| COc1ccc(CNc2c(CO)cnc3c2cnn3C)cc1 | 8.01% |
| CCOP(=O)(Cc1ccc(C#N)o1)OCC | 16.5% |
| O=C(c1ccc(O)cc1)c1ccc(C(=O)O)c(C(=O)O)c1 | 17.7% |
| Cc1ccc2c(C)c(C(=O)N3CCC(O)(c4ccccc4)CC3)oc2c1C | 15.5% |
| O=C(CSc1nccn(-c2ccc3c(c2)OCCO3)c1=O)Nc1ccccc1 | 13.7% |
| COc1ccc(/C=C/C(=O)OCC(=O)c2c(C)[nH]c3ccccc23)cc1OC | 0.968% |
| CCc1sc(C(=O)Nc2ccccc2N2CCOCC2)cc1C | -1.09% |
| O=C(NCc1ccncc1)c1nc(-c2cccs2)no1 | -0.652% |
| CCCCc1ccc(-c2nc(NC(=O)C3C4CCC(O4)C3C(=O)O)sc2C)cc1 (centres unmarked) | 11.9% |
| CC(c1ccco1)N(C(=O)COc1ccc(Cl)cc1Cl)c1ccccn1 (centres unmarked) | 1.64% |
| COc1cc(OC)cc(C(=O)N2CCC(C(=O)NCCc3ccccc3)CC2)c1 | 14.6% |
| COc1ccc(C2NC(=O)NC(C)=C2C(=O)OCc2ccc3c(c2)OCO3)cc1OC (centres unmarked) | 9.69% |
| COc1ccc(OC)c(S(=O)(=O)N(C)CC(=O)O)c1 | -1.6% |
| CCc1c(C)sc(NC(=O)CN2CCN(C(=O)c3ccco3)CC2)c1C(=O)OC | -7.19% |

| SMILES | hERG current change (%, negative = inhibition) at 1uM |
| --- | --- |
| COC(=O)CSc1nc(N2CCOCC2)c2c(c1C#N)CCCC2 | 15.2% |
| CCCc1cc(=O)oc2c(C)c(O)c(CN3CCCCC3)cc12 | 4.25% |
| O=C(Nc1ccccc1)N1CCCC(c2nc(-c3cccs3)no2)C1 (centres unmarked) | -1.07% |
| Cc1ccccc1S(=O)(=O)c1c(C)cc(C)n(CC(C)C)c1=O | 8.89% |
| c1ccc2c(-c3nn[nH]n3)cccc2c1 | 9.54% |
| CCCCc1nnc(NC(=O)CSc2nc(O)c(-c3ccccc3)c(=O)[nH]2)s1 | 11.7% |
| Cc1cc(=O)n2[nH]c(SCc3ccccc3)nc2n1 | 9.29% |
| O=C(CSC1=NCCN1)NC1CCCCCC1 | -4.6% |
| CS(=O)(=O)c1ccc2nc(NC(=O)C3CC(=O)N(c4ccccc4)C3)sc2c1 (centres unmarked) | 0.138% |
| COc1ccc(/C=N\NC(=O)c2ccccc2Br)cc1COc1ccc(F)cc1 | 4.15% |
| COc1cc([N+](=O)[O-])ccc1NC(=O)N1CCCCCC1 | 5.44% |
| CC(C)Oc1ccc(-c2nn(-c3ccccc3)cc2/C=c2\sc3ncnn3c2=O)cc1 | 5.65% |
| Cc1cccc2sc(NC(=O)Cn3cccc3)nc12 | 4.91% |
| O=C(N1CCN(c2ccccc2)CC1)C(F)(F)C(F)F | -6.71% |
| CCOc1ccc(NC(=O)CSc2nnc(C3CC3)n2C)cc1 | 13.3% |
| COc1ccccc1-n1cnc2cc(NCc3cccs3)ccc21 | -5.29% |
| CCOC(=O)C1CCCCN1C(=O)CCn1nnnc1CN1CCOCC1 (centres unmarked) | 14.3% |
| Cc1ccc(S(=O)(=O)NNC(=O)c2cc(C)cs2)cc1 | 13.7% |
| Clc1cc(Sc2ccc(Br)cc2)nnc1-c1ccccc1 | -0.175% |
| CCCn1c(=O)c2ccccc2n2c(SCc3c(C(=O)OCC)oc4ccccc34)nnc12 | 8.38% |

| SMILES | hERG current change (%, negative = inhibition) at 1uM |
| --- | --- |
| CC/C(=N\NC(=O)CSCc1ccccc1Br)c1ccc2c(c1)OCCO2 | 1.06% |
| COc1ccccc1CCC(=O)OCC(=O)Nc1c(C)nn(-c2ccccc2)c1C | 5.32% |
| O=C(Nc1ccc(OC(F)(F)F)cc1)C1CC(c2ccc(F)cc2)=NO1 (centres unmarked) | 23.1% |
| CCOCN(C(=O)CCl)c1c(C)cccc1CC | 0.214% |
| O=S(=O)(c1cccc2cccnc12)N1CCN(c2ccccn2)CC1 | 8.58% |
| CC(C)C(c1nnnn1Cc1ccccc1)N1CCC(C(N)=O)CC1 (centres unmarked) | 5.62% |
| COc1ccc(NC(=O)c2ccco2)cc1NC(=O)c1cccc(OC(C)C)c1 | -8.96% |
| COC(=O)c1ccc(COc2ccc(CNCc3ccc(Cl)cc3)cc2)cc1 | 10.1% |
| COc1ccc(C(=O)C2CCCN(C(=O)c3cccc(Cl)c3F)C2)cc1OC (centres unmarked) | 14.4% |
| Cc1cccc(N(CC(=O)Nc2ccc(F)cc2)S(C)(=O)=O)c1 | 9.67% |
| COC(=O)Cn1c(=NC(=O)c2nc3ccccc3s2)sc2cc(S(C)(=O)=O)ccc21 | -0.94% |
| CCCCOc1ccc(CN2CCC(O)CC2)cc1 | 6.42% |
| CC(C)c1ccc(S(=O)(=O)N2CCC(C(=O)N3CCC3)CC2)cc1 | 8.37% |
| CCN(CC)c1ccc(NC(=O)Cn2c(C(C)NC(=O)c3ccccc3)nc3ccccc32)cc1 (centres unmarked) | 16.8% |
| Cc1ccc(O)c(O)c1 | 11% |
| CCN(CC)S(=O)(=O)c1ccc(C(=O)NCc2ccc(C)cc2)cc1 | -0.676% |
| CC#CC[N+](C)(C)CCCCCCCC.[Br-] | -4.53% |
| O=[N+]([O-])c1ccc(COc2ccc(-c3[nH]ncc3-c3ccc(Cl)cc3)c(O)c2)cc1 | 1.44% |
| Cc1c(Br)c([N+](=O)[O-])nn1CC(=O)NCc1cccs1 | -0.373% |
